Results as given in the antibiotic and cytotoxicity screens of Wong et al. (2023).
Some of the results follow.

System: S. aureus RN4220
Experiment: growth inhibition call (relative growth <= 0.2)
Details: 50 µM

Growth inhibition call, inactive:
Cc1cccc(OC[C@@H](O)CN)c1
CC(C)NC(=O)N(C)C[C@@H]1Oc2c(NC(=O)C3CCCCC3)cccc2C(=O)N([C@@H](C)CO)C[C@@H]1C
O=C(C[C@@H]1C[C@@H]2c3cc(NC(=O)C4CCOCC4)ccc3O[C@@H]2[C@@H](CO)O1)NCCN1CCCCC1
COc1cccc(-c2cn(CC[C@H]3CC[C@@H](NC(=O)CN(C)C)[C@@H](CO)O3)nn2)c1
COc1ccc(NC(=O)N(C)C[C@H]2Oc3ccc(NC(=O)Nc4cccc5ccccc45)cc3CC(=O)N([C@H](C)CO)C[C@H]2C)cc1
C[C@H](CO)N1C[C@H](C)[C@@H](CN(C)C(=O)Nc2ccc3c(c2)OCO3)OCCCC[C@H](C)Oc2ccc(NC(=O)Nc3cccc4ccccc34)cc2C1=O
CC(C)NC(=O)N[C@@H]1C=C[C@@H](CC(=O)NCCCN(C)C)O[C@@H]1CO
O=C(C[C@@H]1C[C@@H]2c3cc(NC(=O)Cc4ccncc4)ccc3O[C@@H]2[C@H](CO)O1)NCCc1ccccc1
C[C@H]1CC=CC[C@H](c2ccc3c(c2)OCO3)NC(=O)[C@H](Cc2ccccc2)N(C)C(=O)c2ccccc2O1
Cc1ccc(S(=O)(=O)Nc2ccc3c(c2)C(=O)N([C@@H](C)CO)C[C@H](C)[C@@H](CN(C)Cc2ccccc2)OCCCC[C@@H](C)O3)cc1
C[C@@H]1CN([C@@H](C)CO)S(=O)(=O)c2ccc(Br)cc2O[C@H]1CN(C)C(=O)Cc1cccnc1
C[C@@H]1CN([C@@H](C)CO)S(=O)(=O)c2ccc(C#Cc3cccnc3)cc2O[C@H]1CN(C)C(=O)Nc1ccc2c(c1)OCO2
O=C(O)C[C@H]1CSc2nccc(=O)n21
C[C@@H]1CCCCO[C@H](CN(C)C(=O)Nc2ccc(C(F)(F)F)cc2)[C@H](C)CN([C@@H](C)CO)C(=O)c2cc(NS(=O)(=O)c3cccs3)ccc2O1
C[C@@H]1CN([C@@H](C)CO)C(=O)c2cc(NS(=O)(=O)c3cn(C)cn3)ccc2O[C@H]1CN(C)Cc1ccncc1
CO[C@@H](CN(C)C(=O)c1ccc2c(c1)OCO2)[C@@H](C)CN([C@H](C)CO)S(=O)(=O)c1ccc(C)cc1
CO[C@@H]1CN(C)C(=O)c2ccc(NS(C)(=O)=O)cc2OC[C@@H](C)N(C(=O)CN(C)C)C[C@@H]1C
C[C@@H]1CCCCO[C@H](CN(C)C(=O)c2ccccc2)[C@@H](C)CN([C@H](C)CO)C(=O)c2cc(NC(=O)Cc3ccccc3)ccc2O1
Cl.O=C1CN2Cc3c(ccc(Cl)c3Cl)N=C2N1
COCC(=O)Nc1ccc2c(c1)C(=O)N(C)C[C@H](OC)[C@H](C)CN(Cc1cccc(F)c1)[C@@H](C)CO2
CC(C)NC(=O)Nc1ccc2c(c1)C(=O)N([C@@H](C)CO)C[C@@H](C)[C@H](CN(C)C(=O)C1CCCCC1)OCCCC[C@H](C)O2
C[C@H]1CN([C@@H](C)CO)C(=O)c2cccc(NS(=O)(=O)c3cn(C)cn3)c2O[C@H]1CN(C)S(=O)(=O)c1cn(C)cn1
COc1ccccc1-c1ccc2c(c1)O[C@H](CN(C)C(=O)c1cccnc1)[C@@H](C)CN([C@H](C)CO)S2(=O)=O
Clc1ccccc1Nc1ccc(-c2ccncc2)s1
Cc1ccc(C(=O)C(C)CN2CCCCC2)cc1.Cl (stereo not drawn)
CCC(=O)NO
C[C@H]1CN([C@@H](C)CO)C(=O)c2c(c3ccccc3n2C)-c2ccccc2CO[C@H]1CN(C)C(=O)NC1CCCCC1
COCCN1C[C@@H]2CN(C(=O)c3cnn(C)c3)C[C@H]2C1=O
CC1C=CC=CC=CC=CC=CC=CC=CC(OC2OC(C)C(O)C(N)C2O)CC2OC(O)(CC(O)CC(O)C(O)CCC(O)CC(O)CC(=O)OC(C)C(C)C1O)CC(O)C2C(=O)O (stereo not drawn)
Nc1cc(-c2ccncc2)c[nH]c1=O
C[C@H]1CN([C@@H](C)CO)C(=O)c2cc(NS(=O)(=O)c3ccccc3)ccc2O[C@@H]1CN(C)S(=O)(=O)c1ccccc1
C[C@H](CO)N1C[C@H](C)[C@@H](CN(C)S(=O)(=O)c2cn(C)cn2)Oc2ccc(NS(=O)(=O)c3ccccc3)cc2CC1=O
NC(=O)c1ccc2nc(-c3ccc(C4(N)CCC4)cc3)c(-c3ccccc3)n2n1
